“And” between values parts separate entries of the source, which are not always exact repeats. Equal entries are not always repeated. Structures can show the parent of a compound that is named as a salt. Among all 1,800 compounds or so, about 50 (3%) showed activity. This is one part of the list.
System: mouse p16Ink4a+/- lung fibroblasts (INKBRITE, bleomycin-injured)
Assay: percentage of GFP+ (p16Ink4a+) fibroblasts among all cells in well; higher = less depletion of p16Ink4a+ cells, active = 20 or less
Conditions: 1 µM; 3 days
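Further: fibroblasts sorted 14 days after bleomycin, GFP+ and GFP− mixed 1:1 in 384-well plates (GFP− as in-well control), imaged after Hoechst and NucView530 staining, reference wells lacked compound.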

SMILES | percentage of GFP+
Oc1cccc(-c2nc(N3CCOCC3)c3oc4ncccc4c3n2)c1 | inactive: 37%
OCc1ccc(-c2ccc(-c3ccc(CO)s3)o2)s1 | inactive: 34.7%
Cc1cc(C2CCCCC2)n(O)c(=O)c1 [Ciclopirox] | inactive: 29.6% and inactive: 35.5%
O=C(Oc1cc(S(=O)(=O)c2ccccc2)ccc1[N+](=O)[O-])c1ccc(Cl)cc1 | inactive: 56.2%
NC(=O)c1cnccn1 [Pyrazinamide] | inactive: 40.9%
Cc1ccccc1C(OCCN(C)C)c1ccccc1 (stereo not given) [Orphenadrine] | inactive: 34.6%
Nc1nc(N)c(N=O)c(OCC2CCCCC2)n1 | inactive: 38.6%
NCC(=O)Nc1ccc(-n2nc(C(F)(F)F)cc2-c2ccc3c(ccc4ccccc43)c2)cc1 | inactive: 38.6%
NS(=O)(=O)c1cc2c(cc1Cl)NCNS2(=O)=O [Hydrochlorothiazide] | inactive: 35.2%
Oc1ccc([C@H]2COc3cc(O)ccc3C2)cc1 [Equol] | inactive: 37.9%
Nc1ccc(S(=O)(=O)Nc2nccs2)cc1 [Sulfathiazole] | inactive: 48.5%
COc1ccc([C@@H]2Sc3ccccc3N(CCN(C)C)C(=O)[C@@H]2OC(C)=O)cc1 [Diltiazem] | inactive: 42.6%
NC(=O)OCC(COC(N)=O)c1ccccc1 [Felbamate] | inactive: 48%
CC(C)(Oc1ccc(C2CC2(Cl)Cl)cc1)C(=O)O (stereo not given) [Ciprofibrate] | inactive: 65.1%
CSc1nc2cc(Cl)c(Oc3cccc(Cl)c3Cl)cc2[nH]1 [Triclabendazole] | inactive: 48.9%
COc1ccc2[nH]cc(CCNC(C)=O)c2c1 [Melatonin] | inactive: 30.8%
Clc1ccc(C(Cn2ccnc2)OCc2ccsc2Cl)c(Cl)c1 (stereo not given) [Tioconazole] | inactive: 40.6%
CCc1nc(-c2cccc(C)c2)c(-c2ccnc(NC(=O)c3ccccc3)c2)s1 | inactive: 52.2%
Nc1ccc(S(N)(=O)=O)cc1 [Sulfanilamide] | inactive: 50.2%
CN1CCCC(n2nc(Cc3ccc(Cl)cc3)c3ccccc3c2=O)CC1 (stereo not given) [Azelastine, Azelastine Hydrochloride] | inactive: 41.1%
O=C(Nc1cc(C(F)(F)F)cc(C(F)(F)F)c1)c1cc(Cl)ccc1O | inactive: 42.4%
OCCOCCN1CCN(C(c2ccccc2)c2ccc(Cl)cc2)CC1 (stereo not given) [Hydroxyzine] | inactive: 55.6%
Cc1cc(Nc2cc(N3CCN(C)CC3)nc(Sc3ccc(NC(=O)C4CC4)cc3)n2)n[nH]1 | inactive: 33.6%
C=CCc1cccc(/C=N/NC(=O)CN2CCN(Cc3ccccc3)CC2)c1O | inactive: 50.5%
COc1cc2nccc(Oc3ccc(NC(=O)NC4CC4)c(Cl)c3)c2cc1C(N)=O [Lenvatinib] | inactive: 27.6%

SMILES | percentage of GFP+
Clc1ccc(CSC(Cn2ccnc2)c2ccc(Cl)cc2Cl)cc1 (stereo not given) [Sulconazole] | inactive: 47.6%
C[C@]12CC[C@@H]3c4ccc(O)cc4CC[C@H]3[C@@H]1CC[C@@H]2O [Estradiol] | inactive: 46.4%
Cc1ccc(S(=O)(=O)n2c(N)nc3ccccc32)cc1 [Nodinitib-1] | inactive: 51.9%
C[C@@H](Oc1cc(-n2cnc3ccc(CN4CCN(C)CC4)cc32)sc1C(N)=O)c1ccccc1C(F)(F)F | inactive: 27.8%
O=C(CCCN1CC=C(n2c(O)nc3ccccc32)CC1)c1ccc(F)cc1 [Droperidol] | inactive: 55.4%
COc1cc2nccc(Oc3ccc(NC(=O)C4(C(=O)Nc5ccc(F)cc5)CC4)cc3)c2cc1OC [Cabozantinib] | inactive: 29.6%
CC(=O)N1CCN(CCOc2ccc(C3CCN(C4=Nn5c(nnc5C(F)(F)F)CC4)CC3)cc2)CC1 | inactive: 43.8%
CCCOc1ccc(C(=O)OCCN(CC)CC)cc1N [Proparacaine] | inactive: 37.1%
C[N+](C)(C)CC(O)CC(=O)O (stereo not drawn) [Carnitine Hydrochloride, Carnitine (dl) Hydrochloride] | inactive: 40.1%
O=C(O)c1cccnc1Nc1cccc(C(F)(F)F)c1 [Niflumic Acid] | inactive: 44.2%
c1ccc(CC2=NCCN2)cc1 [Tolazoline, Priscoline] | inactive: 42.5%
O=C(NCc1cccc(O)c1)Nc1nc(-c2ccncc2)cs1 | inactive: 39.8%
CC1(C)S[C@@H]2[C@H](NC(=O)[C@H](N)c3ccccc3)C(=O)N2[C@H]1C(=O)O [Ampicillin] | inactive: 49.5% and inactive: 41.4%
CC(C)NCC(O)c1ccc(NS(C)(=O)=O)cc1 (stereo not given) [Sotalol] | inactive: 39.9%
CC(CNC(=O)c1cccnc1)NC(=O)c1cccnc1 (stereo not given) [Nicaraven] | inactive: 41.5%
CCN(CC)CC(=O)Nc1c(C)cccc1C [Lidocaine] | inactive: 45.2%
CC1=C(C(=O)OC2CCCCC2)C(c2ccc([N+](=O)[O-])cc2)C2=C(O)CC(C)(C)CC2=N1 (stereo not given) | inactive: 44.8%
CC1CC(OC(=O)C(O)c2ccccc2)CC(C)(C)C1 (stereo not given) [Cyclandelate] | inactive: 42.7%
CC(=O)NS(=O)(=O)c1ccc(N)cc1 [Sulfacetamide] | inactive: 50.8%
CC[C@H]1OC(=O)C[C@@H](O)[C@H](C)[C@@H](O[C@@H]2O[C@H](C)[C@@H](O)[C@H](N(C)C)[C@H]2O)[C@@H](CCN2C[C@H](C)C[C@H](C)C2)C[C@@H](C)C(=O)/C=C/C(C)=C/[C@@H]1CO[C@@H]1O[C@H](C)[C@@H](O)[C@@H](OC)[C@H]1OC [Tilmicosin] | inactive: 50.6%
COC(=O)Nc1nc2cc(C(=O)c3cccs3)ccc2[nH]1 [Nocodazole] | inactive: 23.5%
CN(C)CCC(c1ccc(Cl)cc1)c1ccccn1 (stereo not given) [Chlorphenamine] | inactive: 37.1%
OCc1c[nH]c2ccccc12 [Indole-3-carbinol] | inactive: 47%
Cc1ccc(F)c(NC(=O)Nc2ccc(-c3cccc4[nH]nc(N)c34)cc2)c1 [Linifanib] | inactive: 24%
Cc1nc(O)c2cc(CN(C)c3ccc(C(=O)N[C@@H](CCC(=O)O)C(=O)O)s3)ccc2n1 [Raltitrexed] | inactive: 40.7%
